Here are results for 42 compounds from ChEMBL document CHEMBL4888484, “Replenishing the malaria drug discovery pipeline: Screening and hit evaluation of the MMV Hit Generation Library 1 (HGL1) against asexual blood stage Plasmodium falciparum ,using a nano luciferase reporter read-out” (2022).

The structures appear in SMILES notation. Hit rate of the full screen: of about 150,000 compounds, about 540 (0.36%) showed an effect of 50% or more. The list shows a part of the results.

What is called % Inhibition is the drop in the measured response relative to a control, in per cent.

In the assay the test system is Plasmodium falciparum. The assay is described as follows: Primary screen in NF54 nanoGlo assay, in single point, at 2uM, 72h; a lower Z score goes with more inhibition. The class given is functional, Erythrocyte. To be noted: timepoint 72 hour.
For `COc1ccccc1CCN(C)CC(=O)Nc1c(C)n[nH]c1C`, the “% Inhibition” value came to 6% and the Z score is on record as -0.75.

As for `COCc1ccc(NC(=O)N[C@@H](C)C(=O)N2CCCCC2)cc1`, the “% Inhibition” value is listed as -5% and the Z score is on record as 0.69.

For `CC(C)COc1ccc(C(N)=O)cc1N`, the “% Inhibition” value is -9% and the Z score came to 1.09.

Turning to `CC(=O)N1CCC2(CC1)Nc1ccccc1S(=O)(=O)N2`, the “% Inhibition” value came to 4% and the Z score is -0.5.

As for `O=C(CC1CCCC1)NC[C@H](O)c1ccoc1`, the “% Inhibition” value is on record as -4% and the Z score was found to be 0.64.

In the case of `O=C(c1ccns1)N(CCO)CC1CC1`, the “% Inhibition” value is reported as -14% and the Z score amounted to 2.59.

For `Cc1ncc(C)c(N2CCC[C@H](c3[nH]ncc3Cc3ccccc3)C2)n1`, the “% Inhibition” value was found to be 1% and the Z score is -0.08.

With `O=C(O)c1nc(N2CC[C@H](c3ccccc3F)C2)ccc1Cl`, the “% Inhibition” value stood at 4% and the Z score is listed as -0.72.

With `C[C@H](NC(=O)c1ccc2c(c1)OCO2)C1CC1`, the “% Inhibition” value is listed as 15% and the Z score was -1.71.

With `CC(C)n1ccc(CC(=O)NC[C@H](C)CN2CCCCC2)n1`, the “% Inhibition” value was -1% and the Z score is on record as 0.13.

Regarding `COc1ccc(N2CCN(CN3C(=O)C4(OCCCCO4)c4ccccc43)CC2)cc1`, the “% Inhibition” value is on record as -8% and the Z score stood at 1.14.

With `O=C(NCCn1cnnn1)C12CCC(C(F)(F)F)(CC1)CC2`, the “% Inhibition” value is 16% and the Z score is -1.89.

With `O=C1C[C@@H](c2ccc(C(=O)O)cc2)c2c(ccc3nsnc23)N1`, the “% Inhibition” value was -16% and the Z score was determined as 2.01.

With `Cc1ccc(S(C)(=O)=O)cc1NC(=O)N(C)Cc1noc(C2CCC2)n1`, the “% Inhibition” value is on record as -2% and the Z score was 0.38.

For the compound `COCC[C@H]1CN(c2ncc(F)c(OC)n2)CCO1`, the “% Inhibition” value is reported as -17% and the Z score was 1.85.

In the case of `CN1CCN(c2nnnc3c2cnn3-c2ccccc2)CC1`, the “% Inhibition” value stood at 0% and the Z score amounted to 0.08.

`O=C1[C@@H]2CCCN2C(=O)CN1Cc1ccccc1`: the “% Inhibition” value is recorded as -5% and the Z score amounted to 0.59.

Take `CC1c2ccsc2CCN1CC(=O)N1CCCC(c2nc3ccccc3s2)C1` (centres undefined): the “% Inhibition” value is reported as -3% and the Z score is given as 0.53.

Regarding `Cc1ccc2c(c1)C(=O)N(CCC(=O)NCCCCc1nc(-c3cccnc3)cs1)C2=O`, the “% Inhibition” value stood at 1% and the Z score is listed as -0.25.

Consider `Cn1cc(C2CC2C(=O)NCCc2nc3c(F)cccc3n2C)cn1` (centres undefined), for which the “% Inhibition” value stood at 16% and the Z score was -2.05.

As for `Cc1cc(C(=O)NCc2cccc(C(=O)N3CCCC3)c2)c(C)n1-c1ccc2c(c1)OCCO2`, the “% Inhibition” value is on record as -4% and the Z score stood at 0.56.

As for `NS(=O)(=O)N1CCCN(C(=O)CCc2cccc(Cl)c2)CC1`, the “% Inhibition” value is -7% and the Z score worked out at 1.15.

Take `C[C@@H]1C[C@@H](Nc2ccccc2)c2ccccc2N1C(=O)c1ccccc1`: the “% Inhibition” value was -10% and the Z score is given as 1.92.

On to `CC1=C[C@@H](CN)[C@H](C(C)C)C[C@H]1Cc1nc2ccc(C)cc2[nH]1`, for which the “% Inhibition” value is recorded as -11% and the Z score came out at 1.46.

Turning to `Cc1c[nH]c([C@H](C)NS(=O)(=O)N2CCc3ccccc3C2)n1`, the “% Inhibition” value is given as -4% and the Z score amounted to 0.84.

Consider `C[C@H](NC(=O)COc1ccc(-c2ncccn2)cc1CN1CCN(c2ccccc2)CC1)c1ccco1`, for which the “% Inhibition” value is -7% and the Z score is on record as 0.9.

Take `Nc1nnc(CNC(=O)c2nc3ccccc3[nH]c2=O)s1`: the “% Inhibition” value amounted to 9% and the Z score is listed as -0.99.

For `N#Cc1ccc(F)c(CN2CC[C@H](c3ccccc3)C2)c1`, the “% Inhibition” value is reported as 5% and the Z score is -0.41.

`O=c1[nH]ncn1C1CCN(c2nnnn2CC23CCCCC2C3)CC1` (centres undefined): the “% Inhibition” value is given as 1% and the Z score was -0.13.

As for `COCCN1C[C@]2(CCCN(C(=O)c3ccc4[nH]cnc4c3)C2)CCC1=O`, the “% Inhibition” value is listed as -9% and the Z score amounted to 1.53.

With `C[C@H]1CCCN(S(=O)(=O)NCCOc2ccc(F)cc2)C1`, the “% Inhibition” value is -10% and the Z score is reported as 1.29.

Regarding `Cc1ccn2c(F)c(C(=O)N3CCC([C@H](C)N4CCN(C)CC4)CC3)nc2c1`, the “% Inhibition” value is recorded as -3% and the Z score is given as 0.59.

Turning to `NC(=O)[C@@H]1CCCCN1C(=O)COC1CCCC1`, the “% Inhibition” value is -8% and the Z score is 0.92.

Regarding `CC1CC(C(=O)N[C@@H](C)C(=O)N2Cc3ccccc3C2)CCO1` (some centres undefined), the “% Inhibition” value is on record as 0% and the Z score turned out to be 0.03.

As to `COc1cc2ccccc2cc1C(=O)Nc1ccc2c(c1)OCCO2`, the “% Inhibition” value is 8% and the Z score is given as -1.31.

For the compound `CCC[C@H](C)N1CC2(CCN(C(=O)Cc3cnc4ccccn34)CC2)OC1=O`, the “% Inhibition” value is on record as -10% and the Z score was 1.14.

For the compound `CCOC1CCN(C(=O)c2cccc(Cn3ccnc3)c2)CC1`, the “% Inhibition” value is on record as -18% and the Z score worked out at 2.22.

For the compound `Cn1cc(C(=O)N2CCCC2)c(-c2ccco2)n1`, the “% Inhibition” value was -8% and the Z score is 1.07.

With `Cc1nccn1CCCN(C)C(=O)Nc1ccncc1F`, the “% Inhibition” value was -5% and the Z score was 0.57.

On to `Cc1noc(CNC(=O)C(=O)Nc2ccc(F)cc2Cl)n1`, for which the “% Inhibition” value was -1% and the Z score was 0.1.

With `Cc1cnn(C2CN(Cc3cnc(C)s3)C2)c1`, the “% Inhibition” value was -8% and the Z score was found to be 0.99.

On to `C#CCNC(=O)C[C@@H]1c2nc(NC(=O)C(C)(C)C)sc2C[C@@H]2[C@](C)(CO)[C@H](O)CC[C@]21C`, for which the “% Inhibition” value was 9% and the Z score is on record as -1.02.
